# Experimental data from the supplement of paper PMC7238544.
# Structures can show the parent of a compound that is named as a salt. ± gives the standard deviation of the averaged measurements. This is one part of the list.
# Tested on: hAMSC donor 1
# Assay: transgenic luciferase activity (RLU/mg protein) fold change vs vehicle control (ratio); hAMSC are human adipose-derived mesenchymal stem cells given an EGFP-luciferase plasmid by lipofection; higher = more transgene expression
# Conditions: priming compound concentration 100 µM
# 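Also: compounds in DMSO added 30 min before Lipofectamine 3000 transfection of pEGFP-Luc in 96-well plates, values are means of triplicate wells over DMSO vehicle wells on the same plate.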
row,SMILES,transgenic luciferase activity
1,CC(C)(C)NCC(O)c1cc(O)cc(O)c1 (stereo unspecified) [Terbutaline sulfate],0.436 ± 0.49
2,CC1=C(/C=C/C(C)=C/C=C/C(C)=C\C(=O)O)C(C)(C)CCC1 [Isotretinoin],0.13 ± 0.047
3,CC[C@H](C)C(=O)O[C@H]1C[C@@H](C)C=C2C=C[C@H](C)[C@H](CC[C@@H]3C[C@@H](O)CC(=O)O3)[C@H]21 [Lovastatin],0.714 ± 0.38
4,CN1CCC(=C2c3ccccc3C=Cc3ccccc32)CC1 [Cyproheptadine hydrochloride],1.05 ± 0.11
5,C=CCc1ccc(O)c(-c2ccc(O)c(CC=C)c2)c1 [Honokiol],0.00216 ± 0.00092
6,CC(C)Oc1ccc2c(=O)c(-c3ccccc3)coc2c1 [Ipriflavone],3.04 ± 0.35
7,CC[C@@]1(O)C(=O)OCc2c1cc1n(c2=O)Cc2cc3c(CN(C)C)c(O)ccc3nc2-1 [Topotecan hydrochloride],0.922 ± 0.52
8,CN(C)CCCSc1ccccc1NC(=O)/C=C/c1ccccc1 [Cinanserin],0.849 ± 0.41
9,CC(=O)OCC(CCn1cnc2cnc(N)nc21)COC(C)=O [Famciclovir],1.67 ± 0.71
10,C[C@](N)(Cc1ccc(O)cc1)C(=O)O [alpha-Methyl-L-tyrosine],0.691 ± 0.15
11,C=CC1=C(C(=O)O)N2C(=O)[C@@H](NC(=O)/C(=N\O)c3csc(N)n3)[C@H]2SC1 [Cefdinir],0.547 ± 0.2
12,COc1ccc(CC(C)NCC(O)c2ccc(O)c(NC=O)c2)cc1 (stereo unspecified) [Formoterol fumarate dihydrate],0.844 ± 0.34
13,Cc1nc(=O)c2cc(CN(C)c3ccc(C(=O)N[C@@H](CCC(=O)O)C(=O)O)s3)ccc2[nH]1 [Raltitrexed],1.21 ± 0.34
14,CC(C)[N+](C)(CCOC(=O)C1c2ccccc2Oc2ccccc21)C(C)C [Propantheline bromide],0.341 ± 0.14
15,COCCOC(=O)C1=C(C)NC(C)=C(C(=O)OC(C)C)C1c1cccc([N+](=O)[O-])c1 (stereo unspecified) [Nimodipine],0.327 ± 0.034
16,CN(C)CCOC(c1ccc(Cl)cc1)c1ccccn1 (stereo unspecified) [Carbinoxamine maleate],0.519 ± 0.23
17,CC(C)c1ccc2c(c1)c(SC(C)(C)C)c(CC(C)(C)C(=O)O)n2Cc1ccc(Cl)cc1,0.195 ± 0.086
18,CCN1CCN(c2cc3c(cc2F)c(=O)c(C(=O)O)cn3C2CC2)CC1 [Enrofloxacin],0.855 ± 0.94

row,SMILES,transgenic luciferase activity
1,CN[C@H]1CC[C@@H](c2ccc(Cl)c(Cl)c2)c2ccccc21 [Sertraline hydrochloride],0.00394 ± 0.00021
2,CC(=O)S[C@@H]1CC2=CC(=O)CC[C@]2(C)[C@H]2CC[C@@]3(C)[C@@H](CC[C@@]34CCC(=O)O4)[C@H]12 [Spironolactone],0.43 ± 0.23
3,O=C(CCCN1CCC(O)(c2ccc(Cl)cc2)CC1)c1ccc(F)cc1 [Haloperidol hydrochloride],2.6 ± 1.1
4,CCCCN1CCCC1CNC(=O)c1cc(C#N)c2ccccc2c1OC (stereo unspecified) [Nafadotride],0.134 ± 0.078
5,O=C(CCNNC(=O)c1ccncc1)NCc1ccccc1 [Nialamide],1.24 ± 0.77
6,NS(=O)(=O)c1cc(C(=O)O)c(NCc2ccco2)cc1Cl [Furosemide],1.41 ± 0.13
7,CCN(CC)CC(=O)Nc1c(C)cccc1C [Lidocaine],0.72 ± 0.37
8,O=C1CC2(CCCC2)CC(=O)N1CCCCN1CCN(c2ncccn2)CC1 [Buspirone hydrochloride],1.06 ± 0.39
9,Cc1cccc(CN2CCN(C(c3ccccc3)c3ccc(Cl)cc3)CC2)c1 (stereo unspecified) [Meclizine hydrochloride],0.052 ± 0.047
10,C[C@@](Cc1ccc(O)c(O)c1)(NN)C(=O)O [Carbidopa],0.779 ± 0.21
11,C#C[C@]1(O)CC[C@H]2[C@@H]3CCc4cc(OC)ccc4[C@H]3CC[C@@]21C [Mestranol],1.2 ± 0.13
12,CC1(C)S[C@@H]2[C@H](NC(=O)Cc3ccccc3)C(=O)N2[C@H]1C(=O)O [Penicillin G potassium],1.54 ± 0.15
13,O=C1[C@H](CC[C@H](O)c2ccc(F)cc2)[C@@H](c2ccc(O)cc2)N1c1ccc(F)cc1 [Ezetimibe],0.552 ± 0.14
14,Nc1nc2c(ncn2COC(CO)CO)c(=O)[nH]1 [Ganciclovir],0.993 ± 0.67
15,Nc1c2c(nc3ccccc13)CCCC2 [Tacrine hydrochloride],0.437 ± 0.18
16,CCN1CCC[C@H]1CNC(=O)c1cc(S(N)(=O)=O)ccc1OC [Levosulpiride],1.82 ± 0.58
17,Cn1ccnc1S [Methimazole],3.25 ± 0.057
18,COc1cc([C@@H]2c3cc4c(cc3[C@@H](O[C@@H]3O[C@@H]5CO[C@@H](C)O[C@H]5[C@H](O)[C@H]3O)[C@H]3COC(=O)[C@H]23)OCO4)cc(OC)c1O [Etoposide],0.373 ± 0.26
